# In all, about 81,000 sequences were measured (“one-hybrid fitness for binding NBS DNA”: median about -0.1, highest 2% from about 0.36 on). The list shows a part of the results.
# B1: Caulobacter ParB omega fusion; a variant is named by its letters at X, in order, B8GW30 (parent)
# chain: MESVVVGEPGMSEGRRGLGRGLSALLGEVDAAPAQAPGEQLGGSREAPIEILQRNPDQPRRTFREEDLEDLSNSIREKGVLQPILVRPSPDTAGEYQIVAGERAWRAAQRAGLKTVPIMVRELDDLAVLEIGIIENVQRADLNVLEEALSYKVLMEKFERTQENIAQTIGKSXSHVANXMRLLXLPDEVQSYLVSGELTAXHARAIAAAADPVALAKQIIEGGLSVRETEALARKAPNLSAGKSKGGRPPRVKDTDTQALESDLSSVLGLDVSIDHRGSTGTLTITYATLEQLDDLCNRLTRGI
# Variants of: B1
# Assay: one-hybrid fitness for binding NBS DNA (the Noc-binding site; scaled: cognate 1, non-cognate 0); higher = stronger binding
# Details: with NBS DNA site
# In short: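 Bacterial one-hybrid selection in E. coli USO rpoZ- hisB- pyrF- with a HIS3 reporter carrying the site 19 bp from the promoter, screening Caulobacter ParB libraries with four specificity codons randomised (NNS). Cells grew 48 hours at 37°C on M9-minus-histidine plus 0.1 mM IPTG and 5 mM 3-AT. Plasmids before and after selection were Illumina-sequenced, three replicate libraries pooled, and variants under 10 reads dropped. Fitness is the log change in variant-to-wild-type read ratio, rescaled to cognate 1, non-cognate 0.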
row,Variant,one-hybrid fitness for binding NBS DNA
1,AFRT,≤ 0.2
2,QMSC,≤ 0.2
3,KRQH,0.221
4,PITV,≤ 0.2
5,LSPL,≤ 0.2
6,RCFG,≤ 0.2
7,VFCL,≤ 0.2
8,VART,≤ 0.2
9,EHPL,≤ 0.2
10,PLDK,≤ 0.2
11,FAGR,≤ 0.2
12,DGHY,≤ 0.2
13,YPPL,≤ 0.2
14,TRCK,≤ 0.2
15,TLQT,≤ 0.2
16,WLGW,≤ 0.2
17,ISSW,≤ 0.2
18,TACV,≤ 0.2
19,KMAA,≤ 0.2
20,ATKY,≤ 0.2
21,RLLD,≤ 0.2
22,PCPD,≤ 0.2
23,WHSR,≤ 0.2
24,QMVG,≤ 0.2
25,TWIT,≤ 0.2

row,Variant,one-hybrid fitness for binding NBS DNA
1,PWLT,≤ 0.2
2,YHRC,≤ 0.2
3,RHRH,0.32
4,SMWR,≤ 0.2
5,HVRW,≤ 0.2
6,TALS,≤ 0.2
7,ARIE,≤ 0.2
8,PREV,≤ 0.2
9,ADVD,≤ 0.2
10,SPMC,≤ 0.2
11,HANT,≤ 0.2
12,LYSW,≤ 0.2
13,RQNY,≤ 0.2
14,GNIW,≤ 0.2
15,VTPR,≤ 0.2
16,SVNV,≤ 0.2
17,IWNG,≤ 0.2
18,GLSF,≤ 0.2
19,SSAE,≤ 0.2
20,KFSC,≤ 0.2
21,VYRY,≤ 0.2
22,GVKR,≤ 0.2
23,FMWR,≤ 0.2
24,MIES,≤ 0.2
25,VKDR,≤ 0.2

row,Variant,one-hybrid fitness for binding NBS DNA
1,LYPA,≤ 0.2
2,SGRP,≤ 0.2
3,NTKI,≤ 0.2
4,PYQT,≤ 0.2
5,ANFK,≤ 0.2
6,VAAK,≤ 0.2
7,FRHA,≤ 0.2
8,ALLN,≤ 0.2
9,LAAV,≤ 0.2
10,HPQQ,≤ 0.2
11,NTSF,≤ 0.2
12,VCDR,≤ 0.2
13,IDLS,≤ 0.2
14,PAEA,≤ 0.2
15,SRMD,≤ 0.2
16,DHNQ,≤ 0.2
17,RSCQ,≤ 0.2
18,TWLY,≤ 0.2
19,FLPM,≤ 0.2
20,GLKK,≤ 0.2
21,QTME,≤ 0.2
22,RLDC,≤ 0.2
23,IQRL,≤ 0.2
24,RSFG,≤ 0.2
25,KWRA,≤ 0.2

row,Variant,one-hybrid fitness for binding NBS DNA
1,CLDY,≤ 0.2
2,KFRN,≤ 0.2
3,ILTG,≤ 0.2
4,IDRP,≤ 0.2
5,AAFI,≤ 0.2
6,CRTT,≤ 0.2
7,GVRL,≤ 0.2
8,DWST,≤ 0.2
9,WAGG,≤ 0.2
10,KRSM,≤ 0.2
11,PWNG,≤ 0.2
12,ASPY,≤ 0.2
13,HDRW,≤ 0.2
14,EAQQ,≤ 0.2
15,FTQV,≤ 0.2
16,YDLG,≤ 0.2
17,HLHG,≤ 0.2
18,AIFT,≤ 0.2
19,PLPN,≤ 0.2
20,TGCM,≤ 0.2
21,LQTK,≤ 0.2
22,KGFI,≤ 0.2
23,NSSN,≤ 0.2
24,ATCC,≤ 0.2
25,QNIE,≤ 0.2

row,Variant,one-hybrid fitness for binding NBS DNA
1,SERG,≤ 0.2
2,SETT,≤ 0.2
3,FTAQ,≤ 0.2
4,TMTV,≤ 0.2
5,VRSE,≤ 0.2
6,PCYG,≤ 0.2
7,TMTP,≤ 0.2
8,YGFV,≤ 0.2
9,PEKN,≤ 0.2
10,SNPK,≤ 0.2
11,CEAV,≤ 0.2
12,KGRW,≤ 0.2
13,NHNC,≤ 0.2
14,THRH,≤ 0.2
15,TPGT,≤ 0.2
16,FVPG,≤ 0.2
17,DWDT,≤ 0.2
18,YAGV,≤ 0.2
19,KPRL,≤ 0.2
20,DGVS,≤ 0.2
21,PWDT,≤ 0.2
22,RQAT,0.385
23,VRDY,≤ 0.2
24,CHRF,≤ 0.2
25,RWVI,≤ 0.2

row,Variant,one-hybrid fitness for binding NBS DNA
1,QISE,≤ 0.2
2,RPMS,≤ 0.2
3,HLLS,≤ 0.2
4,WTSF,≤ 0.2
5,VELW,≤ 0.2
6,HNNT,≤ 0.2
7,SADA,≤ 0.2
8,HLTT,≤ 0.2
9,MIRY,≤ 0.2
10,APEM,≤ 0.2
11,PPCV,≤ 0.2
12,LCPS,≤ 0.2
13,ACPK,≤ 0.2
14,SASI,≤ 0.2
15,LSPG,≤ 0.2
16,NSHP,≤ 0.2
17,QHIY,≤ 0.2
18,GAYR,≤ 0.2
19,MYTL,≤ 0.2
20,TMSQ,≤ 0.2
21,PLHG,≤ 0.2
22,EKDG,≤ 0.2
23,CGPC,≤ 0.2
24,CKSR,≤ 0.2
25,VCSC,≤ 0.2

row,Variant,one-hybrid fitness for binding NBS DNA
1,QGWS,≤ 0.2
2,MTNL,≤ 0.2
3,REQP,≤ 0.2
4,MAFM,≤ 0.2
5,RMPM,≤ 0.2
6,SHCR,≤ 0.2
7,YCHT,≤ 0.2
8,EGYR,≤ 0.2
9,CDNT,≤ 0.2
10,VKDT,≤ 0.2
11,HVIS,≤ 0.2
12,AVAW,≤ 0.2
13,PCIC,≤ 0.2
14,SLTI,≤ 0.2
15,RVEL,≤ 0.2
16,LISK,≤ 0.2
17,VNRV,≤ 0.2
18,TYMC,≤ 0.2
19,NGPC,≤ 0.2
20,PALC,≤ 0.2
21,QQMH,0.222
22,IEST,≤ 0.2
23,YHEG,≤ 0.2
24,NQCS,≤ 0.2
25,AGMR,≤ 0.2

row,Variant,one-hybrid fitness for binding NBS DNA
1,KLPI,≤ 0.2
2,WRWS,≤ 0.2
3,MASV,≤ 0.2
4,QEME,≤ 0.2
5,LAPK,≤ 0.2
6,GTAC,≤ 0.2
7,HYMS,≤ 0.2
8,YKDV,≤ 0.2
9,STTV,≤ 0.2
10,TINM,≤ 0.2
11,SRAG,≤ 0.2
12,AKPL,≤ 0.2
13,KINL,≤ 0.2
14,LESF,≤ 0.2
15,YSIL,≤ 0.2
16,DEMT,≤ 0.2
17,PYDC,≤ 0.2
18,SGHW,≤ 0.2
19,SYRK,≤ 0.2
20,VTSL,≤ 0.2
